The whole screen tested about 420,000 compounds, of which about 50,000 (12%) were called active. Inconclusive means that the source gave no clear call. Such entries were picked first, then a sample of the others. The call rests on the fitted dose curve; in most records, active means well fitted inhibition curve with a large enough effect; inconclusive means small, poorly fitted or top-dose-only effect; inactive means flat fitted curve, though single readings scatter. Potencies of inconclusive entries are left out as doubtful fits.
Assay: qHTS for Inhibitors of human tyrosyl-DNA phosphodiesterase 1 (TDP1): qHTS in cells in presence of CPT; further: nearly all actives have a fitted effect of over 55% in size
Conditions: chicken DT40 Tdp1-/-;hTDP1 cells + 20 nM CPT, ATP luminescence, 48 h; series mostly up to 46.2 µM
Method in brief: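 Chicken DT40 Tdp1-/- cells stably complemented with human TDP1 were seeded at 400 cells/well in medium containing 20 nM camptothecin, exposed to pin-transferred compounds, and grown at 37 °C for at least 48 hr. Viability was read as ATP luminescence.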
Potency means the concentration at half of the fitted maximal effect; tags describe the fitted curve by direction and shape.

SMILES	Potency
CCCN1C2CCCC1CC(NC(=S)Nc1cccc(C)c1)C2 (stereo not given)	inconclusive [inhibitor, single point]
O=C(CN1CCC(Cc2ccccc2)CC1)NC(=O)NC1CCCCC1	inconclusive [inhibitor, single point]
CCOC(=O)N1CCC(NC(=O)c2cc3c(C)nc4ccccc4c3o2)CC1	active: 9.2 µM
COCCN(C(=O)COC(=O)CCS(=O)(=O)c1ccccc1)c1c(N)n(Cc2ccccc2)c(=O)[nH]c1=O	inactive
C=CCn1c(O)c(N=NC(=S)Nc2ccc(OC)c(Cl)c2)c2ccccc21	active: 4.61 µM
CC(C)Cn1cnc2c(SCc3ccccc3F)nc(N)nc21	inconclusive [inhibitor, single point]
CCN(CC(=O)Nc1c(F)cccc1F)C(=O)c1ccc(N2CCOCC2)c([N+](=O)[O-])c1	inactive
CCCN1CCN(c2ncnc3sc(C(=O)Nc4ccc(C(C)C)cc4)c(C)c23)CC1	active: 20.6 µM
COc1cccc(-c2sc3ccc(OC)cc3c2-c2ccc(OCCN(C)C)cc2)c1	active: 23.1 µM
CCNc1nc(NCC)n2c(SCC(=O)Nc3cc(OC)ccc3OC)nnc2n1	inconclusive [inhibitor, single point]
CCCNC(=O)c1ccc(N2CCC3(CC2)CC(c2ccccc2)=NO3)c(NC(=O)c2cccc(C)c2)c1	active: 8.2 µM
O=C(CS(=O)(=O)c1cccc2nsnc12)N1CCN(c2cccc(Cl)c2)CC1	inconclusive [inhibitor, single point]
C/C(CCc1ccccc1)=N\NC(=O)C(=O)Nc1cccc(Cl)c1	inconclusive [inhibitor, partial curve]
Cc1nn(-c2c(Cl)cc(Cl)cc2Cl)c(=O)c2ccccc12	inconclusive [inhibitor, single point]
CCOC(=O)/C(=N/Nc1ccccc1)N1CCCc2ccccc21	inactive
CCOC(=O)c1c(C)[nH]c(C(=O)OCC(=O)NCc2ccc(C)cc2)c1C	inconclusive [inhibitor, single point]
CCCCNC(=O)c1cc(-c2ccccc2)sc1N	active: 14.6 µM
C[C@H]1CN([C@@H](C)CO)C(=O)c2cc(NS(=O)(=O)c3ccc(Cl)cc3)ccc2O[C@@H]1CN(C)CC1CCCCC1	inconclusive [inhibitor, single point]
CCCN(CC(=O)Nc1ccccc1C)C(=O)CCCc1c[nH]c2ccccc12	inactive
CC1CC(OC(=O)C2CCN(S(=O)(=O)c3ccc(F)cc3)CC2)C(=O)O1 (stereo not given)	inactive
Cc1ccc2c(c1)sc1nc(=O)ccn12	inconclusive [inhibitor, single point]
CC(=O)Nc1nonc1-c1nnc(SCC(=O)Nc2ccc(C)cc2)n1-c1ccccc1	inconclusive [inhibitor, full curve, poor fit]
COc1cc(/C=C(/C#N)C(=O)NCCc2c[nH]c3ccccc23)ccc1OCc1ccccc1F	active: 11.6 µM

SMILES	Potency
Cc1ccc(N(CC(=O)NCCc2ccc(Cl)cc2)S(=O)(=O)c2c(C)noc2C)cc1	active: 23.1 µM
O=C(COC(=O)CNC(=O)c1ccco1)Nc1ccc(F)cc1	inactive
CC(=O)Nc1cccc(C(=O)Nc2cc(C(F)(F)F)ccc2-n2cncn2)c1	inconclusive [inhibitor, single point]
COc1cccc(N2CCN(C(=O)c3ccc(C)c(NC(=O)c4nsc5ccccc45)c3)CC2)c1	inconclusive [inhibitor, single point]
COc1cc(SC)ccc1C(=O)Nc1ccc(S(=O)(=O)Nc2nccc(C)n2)cc1	active: 23.1 µM
COc1ccc(-c2nc(CS(=O)(=O)CC(=O)NC3CCC(C)CC3)c(C)o2)cc1 (stereo not given)	inconclusive [inhibitor, partial curve]
NC(N)=N/N=C(\N=Nc1ccccc1)c1cccc2cccnc12	active: 23.1 µM
Cc1cccc(NS(=O)(=O)c2ccc(C)c(C(=O)NNC(=O)c3csc(N4CCOCC4)n3)c2)c1	inactive
Cc1cccc(CNc2nc(-c3ccc4c(c3)OCO4)nc3ccccc23)c1	inconclusive [inhibitor, single point]
Cc1ccc(NC(=O)CN2C(=O)c3ccccc3Sc3ccc(C(=O)N4CCOCC4)cc32)cc1F	inconclusive [inhibitor, single point]
CC(C)OC(=O)C(C)(C)Oc1ccc(C(=O)c2ccc(Cl)cc2)cc1	inconclusive [inhibitor, partial curve, poor fit]
N#Cc1c(Nc2ccccc2)[n+]([O-])c2ccc(Cl)cc2[n+]1[O-]	active: 6.51 µM
CCN(C(=O)Nc1ccccc1)c1ccccc1	inconclusive [inhibitor, single point]
CCN(c1ccccc1)S(=O)(=O)c1ccc(Cl)c(NC(=O)COC(=O)c2cccc(OC)c2O)c1	inconclusive [inhibitor, single point]
COc1c(O)cc2oc(-c3ccc(O)c(O)c3)cc(=O)c2c1O	inconclusive [inhibitor, single point]
CCOC(=O)Cc1nnc(Nc2ccc(C(=O)NC)cc2)c2ccccc12	inconclusive [inhibitor, single point]
CCC(=O)Nc1nc(-c2ccc3c(c2)CC(C)N3S(C)(=O)=O)cs1 (stereo not given)	inconclusive [inhibitor, single point]
COC(=O)[C@H](CCSC)NC(=O)Cn1cnc2c(NCc3ccccc3)ncnc21	inactive
CCOC(=O)[C@@H]1CSCCS(=O)(=O)N1	active: 11.6 µM
Cc1cc(C)c(S(=O)(=O)N2CCCCC2CCNC(=O)C(=O)NCC2CCCO2)c(C)c1 (stereo not given)	inconclusive [inhibitor, single point]
Cc1cccc(NC(=O)Cn2nnc(-c3nc(-c4ccncc4)no3)c2N)c1	inactive
Cc1ccc(N2CCN(C(=O)c3nn(C)c4c3CS(=O)(=O)c3ccccc3-4)CC2)c(C)c1	active: 18.4 µM

From PubChem BioAssay AID686979 (National Center for Advancing Translational Sciences (NCATS), 2013)
